Counter-ions that a name gives are not always drawn. This is one part of the list. The data scatter; read single values as rough.
Tested on: SUM159
Test: ALDHbr (CSC) cell proportion score relative to DMSO vehicle (ratio to DMSO); breast (SUM159) / gastric (MKN45) / pancreatic (PANC1) / colon cancer lines; ALDHbr cells have high ALDH activity and are rich in cancer stem cells (CSC); higher = more CSC (ALDHbr) cells remaining
Conditions: 10 µM; 72 h
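Also: High-content imaging of ALDEFLUOR-stained cells with Hoechst-labelled nuclei in 384-well plates, triplicate wells, scored as Z-score against 0.1% DMSO vehicle, negative meaning fewer ALDHbr cells.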

Row | Compound | ALDHbr
1 | Cc1ncc(CO)c(CO)c1O [Pyridoxine hydrochloride] | 0.808
2 | CC(=O)[C@H]1CC[C@H]2[C@@H]3C=CC4=CC(=O)CC[C@@]4(C)[C@@H]3CC[C@]12C [Dydrogesterone] | 1.27
3 | CO[C@H]1C[C@H](O[C@H]2[C@H](C)[C@@H](O[C@@H]3O[C@H](C)C[C@H](N(C)C)[C@H]3OC(C)=O)[C@@H](C)C[C@@]3(CO3)C(=O)[C@H](C)[C@@H](OC(C)=O)[C@@H](C)[C@@H](C)OC(=O)[C@@H]2C)O[C@@H](C)[C@@H]1OC(C)=O [Troleandomycin] | 1.58
4 | CCCCOc1ccc(CC(=O)NO)cc1 [Bufexamac] | 1.46
5 | Nc1ncn(C2OC(CO)C(O)C2O)c(=O)n1 (stereo not given) [Azacytidine-5] | 0.61
6 | COc1cc([C@@H]2c3cc4c(cc3[C@@H](O[C@@H]3O[C@@H]5CO[C@@H](C)O[C@H]5[C@H](O)[C@H]3O)[C@H]3COC(=O)[C@H]23)OCO4)cc(OC)c1O [Etoposide] | 1.27
7 | CC(=O)OCC(=O)[C@@]12N=C(C)O[C@@H]1C[C@H]1[C@@H]3CCC4=CC(=O)C=C[C@]4(C)[C@H]3[C@@H](O)C[C@@]12C [Deflazacort] | 1.02
8 | CC(CNC1CCCCC1)OC(=O)c1ccccc1 (stereo not given) [Hexylcaine hydrochloride] | 0.874
9 | CCOC(=O)C1=C(C)NC(C)=C(C(=O)OCC)C1c1ccccc1/C=C/C(=O)OC(C)(C)C [Lacidipine] | 1.08
10 | O=C(Nc1cccc2c(=O)cc(-c3nnn[nH]3)oc12)c1ccc(OCCCCc2ccccc2)cc1 [Pranlukast] | 1.03
